Reference: PubChem BioAssay AID504374 (National Center for Advancing Translational Sciences (NCATS), 2011)
In all, about 1,500 compounds went through this assay and about 100 (6.7%) were called active. Inconclusive results (about 7%) are left out. The call rests on the fitted dose curve; in most records, active means well fitted inhibition curve with a large enough effect; inconclusive means small, poorly fitted or top-dose-only effect, or effect the other way; inactive means flat fitted curve, though single readings scatter. This is one part of the list.

The compounds below were run against Runt-related transcription factor 1 (Homo sapiens) + Core-binding factor subunit beta (Homo sapiens) (UniProt Q01196+Q13951) (assay: qHTS Assay for Compounds Blocking the Interaction Between CBF-beta and RUNX1 for the Treatment of Acute Myeloid Leukemia: Hit Validation). Conditions: AlphaScreen CBFb-His/RUNX1-biotin binding; series mostly up to 59.8 µM; activity, negative = inhibition: at the top concentration.
Chain of UniProt Q01196 (Q01196 whole entry, looked up): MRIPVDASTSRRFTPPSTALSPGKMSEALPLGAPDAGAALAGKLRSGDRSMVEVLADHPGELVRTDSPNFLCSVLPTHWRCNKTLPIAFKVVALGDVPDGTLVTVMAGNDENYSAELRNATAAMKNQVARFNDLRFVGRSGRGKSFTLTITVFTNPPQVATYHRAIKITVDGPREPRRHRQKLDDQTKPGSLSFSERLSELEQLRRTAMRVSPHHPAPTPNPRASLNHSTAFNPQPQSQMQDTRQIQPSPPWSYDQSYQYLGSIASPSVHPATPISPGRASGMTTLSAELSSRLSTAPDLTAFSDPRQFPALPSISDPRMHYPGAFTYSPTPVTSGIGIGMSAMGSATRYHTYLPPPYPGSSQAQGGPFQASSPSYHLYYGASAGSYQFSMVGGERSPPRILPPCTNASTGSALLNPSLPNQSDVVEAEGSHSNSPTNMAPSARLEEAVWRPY
Chain of UniProt Q01196 (Q13951 whole entry, looked up): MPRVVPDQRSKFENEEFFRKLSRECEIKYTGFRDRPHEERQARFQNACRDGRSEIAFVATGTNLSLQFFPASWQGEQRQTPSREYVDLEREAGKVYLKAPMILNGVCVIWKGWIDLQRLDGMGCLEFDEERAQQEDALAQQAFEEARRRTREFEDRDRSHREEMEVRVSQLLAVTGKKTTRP
Source text: NIH Chemical Genomics Center [NCGC]
NIH Molecular Libraries Probe Production centers Network [MLPCN]
Assay Submitter (PI): Paul Liu
Core Binding Factor (CBF) abnormalities are associated with 20-25% of all acute myeloid leukemias (AML), of which 5-10% are further sub classified as acute myelomonocytic leukemia with eosinophilia, also known as M4Eo in the FAB classification scheme. This subtype of leukemia is usually associated with chromosome 16 inversion (p13:q22). Chromosome 16 inversion results in formation of the fusion oncogene CBFB-MYH11, which encodes the fusion protein CBF-beta-SMMHC.
It has been hypothesized that the interference of CBF-beta and RUNX1 binding could have therapeutic implications for patients with CBF mediated leukemias. We developed a CBF-beta and RUNX1 binding assay in AlphaScreenTM format and optimized it for high throughput screening to search for inhibitors. The goal of this project is to screen MLPCN's compound collection (MLSMR) for identifying the inhibitors of the interaction between CBF-beta and RUNX1 proteins as research probes. If these probes work well in the animal models, the ultimate goal of this project is to development a new drug treatment for this disease.
This assay can not be used to assess how apparent inhibitors interfere with protein binding, and whether inhibitors specifically bind to either protein. Disruption of this protein-protein interaction, through any mechanism, is the intended target activity.
The present data set was run to confirm the activity of hits from the primary screen.
NCGC Assay Protocol Summary:
Step, Parameter, Description
(1) Reagent, 3 uL CBFb-His/RUNX1-biotin mix incubated together for 20 minutes at room temperature (30 nM each)
(2) Compound or control, 23 nL compound stock solution
(3) Incubation, 15 minutes at Room temperature
(4) Reagent, 1 uL 50 ng each of beads (Nickel beads and streptavidin beads)
(5) Incubation, 90 minutes at Room temperature
(6) Detection, Excitation=365 nm Emission=440 nm, Envision reader in AlphaScreenTM mode
Keywords: MLSMR, MLPCN, NIH Roadmap, qHTS, NCGC, Core binding factor, CBF, CBF-beta, Acute myeloid leukemia
Further: nearly all actives have a fitted effect of over 60% in size.
On the % scale 0 is the no-effect control and ±100 the full control effect; potency means the concentration at half of the fitted maximal effect.

Potency, active:
O=c1c(-c2cc(O)c(O)c(O)c2)coc2cc(O)c(O)c(O)c12 0.447 µM
O=[N+]([O-])c1cc2c(cc1/C=N/n1c(-c3ccccn3)n[nH]c1=S)OCO2 10 µM

activity, negative = inhibition, inactive:
Cn1nc2c3ccccc3n(Cc3ccccc3)c2nc1=S -12.9%
Cc1nc([N+](=O)[O-])cn1C(C)C -11.3%
NNC(=O)c1ccc(Cn2cc(Br)cn2)o1 -4.5%
O=C(O)C1(c2ccccc2)CCN(S(=O)(=O)c2ccc(Cl)s2)CC1 -0.0237%
CCOc1ccc(N2C(=O)CC(NNc3nc4ccccc4s3)C2=O)cc1 (stereo not given) 5.71%
COC(=O)c1cccc(NC(=O)C(C)(C)C)c1 -2.68%
Cc1ccc(/C=C/c2nc3ccccc3c(=O)[nH]2)cc1 1.17%
Cn1c(=O)c([N+](=O)[O-])c(NCc2ccccc2Cl)c2ccccc21 -12.8%
COc1cccc(CC(=O)NNC(=O)c2c(-c3ccccc3)noc2C)c1 -3.55%
COc1ccc(C(=O)NC(=S)Nc2ccc(CN3CCOCC3)cc2)cc1 -11.1%
Clc1cccc(Cl)c1Cn1nnc(N2CCCC2)n1 0.0502%
NNC(=O)c1ccc(Cn2cccn2)o1 -3.9%
COc1ccc(NC(=O)Nc2nc3ccccc3s2)cc1 6.08%
O=C(CN1C(=O)c2ccccc2S1(=O)=O)c1ccc2c(c1)OCCO2 -13.4%
Cc1ccccc1Nc1nc(N)nc(CCl)n1 -29.2%
O=C(O)/C(=C\c1ccccc1)c1ccccc1 -0.0307%
CCCSc1cc(Cl)nc(N)n1 -2.32%
CC(C)(C)OC(=O)N1CCC[C@H]1c1nnc(SCc2ccccc2)o1 -4.21%
Cc1ccc(-n2[nH]c(C)c(/C=N/c3cccc(C)n3)c2=O)cc1 3.64%
Cc1ccc(C(CCNC(C)c2cccs2)c2ccco2)cc1 (stereo not given) 10%
O=[N+]([O-])c1ccc(C2CC(c3ccccc3)=Nc3ccccc3S2)cc1 (stereo not given) -19.8%
CCNC(=S)NNc1ccccc1 -8.08%
CCNC(=S)N1N=C2c3ccccc3CCC2C1c1ccc(F)cc1 (stereo not given) 7.45%
CN(c1cnn(-c2ccccc2)c(=O)c1Cl)n1cccc1 -0.854%
O=[N+]([O-])c1ccccc1CSc1ccccn1 1.85%
Cn1ncc2c(c(SCc3ccc(Cl)cc3Cl)nn2C)c1=O -2.46%
COc1ccc(CCN(C)CCC(=O)Nc2cccc(C)c2)cc1OC -4.23%
O=C(CCl)NCCCN(C(=O)C(Cl)Cl)c1ccc([N+](=O)[O-])cc1 -1.35%
CCOc1ccc(/C=C2\NC(=S)NC2=O)cc1 3.62%
CCOC(=O)/C(C#N)=C/Nc1ccsc1C(C)=O 0.205%
Cn1c(C(=O)c2ccncc2)cc2ccccc21 -2.19%
O=C(CC1NCCNC1=O)NC1Cc2ccccc2C1 (stereo not given) 9.2%
CCOC(=O)C1=C(C)NC(C)=C(C(=O)OCC)C1 0.11%
O=C(CN1C(=O)c2ccccc2S1(=O)=O)c1ccc2c(c1)OCCCO2 -4.48%
CCOC(=O)NC1c2ccccc2Oc2ccccc21 3.42%
COc1ccc2[nH]c(-c3ccccc3)cc2c1 -8.62%
COc1cc2c(cc1OC)C1(C)N(CC2)C(C(C)=O)=NN1c1ccc(Cl)cc1 (stereo not given) 11.8%
O=C(O)/C=C/C(=O)Nc1ccc(-n2ccc(C(F)(F)F)n2)cc1 -7.33%
CCOC(=O)N1CCC(NS(=O)(=O)c2ccccc2)CC1 -16.1%
COc1ccc(CN(Cc2cccn2C)S(=O)(=O)c2ccc(F)cc2)cc1 -9.03%
CC1CCc2c(sc(NC(=O)Cn3nc(C(=O)O)c4ccccc4c3=O)c2C#N)C1 (stereo not given) -1.1%
O=C(O)C1CCc2sc3[nH]c(=S)n(-c4ccccc4)c(=O)c3c21 (stereo not given) -5.37%
CCN(CC)CCN1C(=O)C(=O)/C(=C(/O)c2ccc3c(c2)CC(C)O3)C1c1ccc(OC)cc1 (stereo not given) -3.3%
CCCCNC(=O)Nc1ccccc1CC -3.42%
Cc1ccc(CN(C(=O)c2cc(=O)c3cc(C)cc(C)c3o2)C2CCS(=O)(=O)C2)cc1 (stereo not given) 4.59%
CC(C)(C)OC(=O)N1CCCN(C(=O)Nc2cccc(Cl)c2)CC1 -3.39%
COC(=O)c1[nH]c2ccccc2c1NC(=O)c1c(F)cccc1F -3.97%
CCCc1cc(NCc2ccccn2)n2nc(C)c(-c3ccccc3)c2n1 7.5%
COc1ccc(C(=O)CN2C(=O)c3ccccc3C2=O)cc1 -0.648%
CCCc1nc2sc3ccccc3c(=O)c2c(=O)n1Cc1ccc(OC)cc1 4.52%
CCOC(=O)c1cnc2c(C(=O)OCC)cnn2c1N -0.993%
Cc1cc(C(=O)NNS(=O)(=O)c2cccc(Cl)c2)nn1C(C)(C)C 2.17%
O=[N+]([O-])c1sccc1CS(=O)(=O)c1ccccc1 4.18%
CC(C)(C)C1CCC(OC(=O)CN2CCCCC2)CC1 (stereo not given) -2.8%
Nc1cc(Nc2ccc(Br)cc2)nc(N)n1 -6.85%
O=C(N/N=C/c1ccncc1)c1cnccn1 -5.76%
Cc1ccnc(SCCn2c(N3CCN(C)CC3)nc3c2c(=O)n(C)c(=O)n3C)n1 0.846%
CCC(C)NC(=S)Nc1ccccc1 (stereo not given) 1.69%
